Measurements published in PubChem BioAssay AID1159614 (National Center for Advancing Translational Sciences (NCATS), 2016).
Hit rate of the full screen: of about 45,000 compounds, about 65 (0.1%) were called active. Calls follow the shape of the dose curve; as a rule, active = well fitted activation curve with a large enough effect; inconclusive = small, poorly fitted or top-dose-only effect; inactive = no such curve, though single readings can be large or run the other way. Some of the results follow.

Each compound was assayed against Galactocerebrosidase (Homo sapiens) (UniProt P54803) (assay: A Novel Cell-Based Assay to Identify Small Molecules for B -Galactocerebrosidase). Conditions: 145M-Twi-hGALC-G270D cells, HMU-beta-Gal fluorescence, 48 h; series mostly up to 57.5 µM; activation: at the top concentration.
Method in brief: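 qHTS, 1536-well; 145M-Twi-hGALC-G270D cells (WT line also made) in DMEM/F12 + 10% FBS; compound incubation on live cells; HMU-β-gal 0.1 mM final, pH 5.2, NaTC; carbonate stop; fluorescence increase = enhanced residual activity.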
Also: 0% is about no effect; nearly all actives have a fitted effect of over 65% in size.

Structure (SMILES)	activation
CCOc1ccc(NC(=O)Cn2c(=O)n(-c3cccc(OC)c3)c(=O)c3c4c(sc32)CCCC4)cc1	inactive: -3.39%
CCc1ccc(NC(=O)c2ccc3[nH]c(C)c(C)c3c2)cc1	inactive: 0.763%
CCN(Cc1ccccc1)C(=O)CN(c1ccc(OC)cc1)S(=O)(=O)c1c(C)nn(C)c1C	inactive: 1.04%
Cc1ccc(C)c(Cn2cc(S(=O)(=O)c3ccc(Cl)cc3)c(=O)c3cc(F)ccc32)c1	inactive: 26.1%
O=C(CCS(=O)(=O)c1cccs1)Nc1ccc(C(=O)Nc2ccccc2F)cc1	inactive: 3.6%
CCSc1ncc(Cl)c(C(=O)Nc2ccc(S(=O)(=O)N3CCCCC3)cc2)n1	inactive: -21.9%
Cc1ccccc1NC(=O)CSc1nc2c(c(=O)n(C)c(=O)n2C)n1Cc1ccccc1F	inactive: -6.03%
Cc1cc2c(cc1S(=O)(=O)N1CCCCC1)OCC(=O)N2	inactive: 7.17%
CCOCCCNc1ncnc2c1cnn2-c1ccc(C)c(C)c1	inactive: -13.2%
COCCNC(=O)Cn1c(=O)n(CCCCCC(=O)NCc2ccc3c(c2)OCO3)c(=O)c2sccc21	inactive: 2.45%
Cc1ccc(-c2c(C)n3c4c(=O)n(C)c(=O)n(C)c4nc3n2CCO)cc1	inactive: -13.1%
CCOC(=O)C1CCN(C(=O)Cn2c(=O)oc3cc(S(=O)(=O)N4CCC(C)CC4)ccc32)CC1	inactive: -8.77%
CC(=O)N1CCc2c(sc3c2c(=O)n(CCc2ccccc2)c(=O)n3Cc2ccc(Cl)cc2)C1	inactive: -22.7%
CC(C)(C)c1ccc(S(=O)(=O)N2CCN(Cc3noc(CCC(=O)N4CCCCC4)n3)CC2)cc1	inactive: -1.04%
CN1[C@@H]2CC[C@H]1CC(OC(=O)C(O)c1ccccc1)C2 (some centres not stated)	inactive: -8.81%
O=C(CN1C(=O)CCc2cc(S(=O)(=O)N3CCOCC3)ccc21)NCc1ccccc1	inactive: 1.23%
COc1ccc(-c2nc(CSc3nncn4c3cc3sccc34)c(C)o2)cc1OC	inactive: 7.01%
CCNc1nc(OC)nc(Oc2ccc(=O)[nH]n2)n1	inactive: -15.5%
COc1ccc(C(=O)n2nc(-c3ccco3)nc2NCc2cccs2)cc1OC	inactive: -11%
CCc1ccccc1NC(=O)N(C)CCc1c(C)nn(C)c1C	inactive: -17.7%
Cc1ccc(-c2nc3sc(CCNC(=O)c4ccc(C)c(C)c4)c(C)n3n2)cc1	inactive: -10.7%

Structure (SMILES)	activation
Cc1cc(C)cc(S(=O)(=O)c2cn(C)c3cc(N4CCCC4)c(F)cc3c2=O)c1	inactive: -17.4%
CCCNC(=O)c1ccc2nc(CCc3ccccc3)oc2c1	inactive: -6.29%
CCc1ccc(NC(=O)CSC2=Nc3ccccc3C3=NC(CCC(=O)NCc4ccco4)C(=O)N23)cc1 (configuration not stated)	inactive: -12.9%
CCOC(=O)c1c(NC(=O)/C=C/c2ccc(OCC)cc2)sc(C)c1C	inactive: -7.71%
COC(=O)C(NC(=O)CC(C)C)(Nc1nc2c(s1)CCCC2)C(F)(F)F (configuration not stated)	inactive: -13%
Cc1cc(C)c(NC(=O)Cn2c(=O)n(CC(=O)NCc3ccccc3Cl)c(=O)c3sccc32)c(C)c1	inactive: -13.7%
CC(=O)c1cc2c(cc1N/C(=N/S(=O)(=O)c1ccc(C)cc1)c1ccccc1)OCO2	inactive: -15.1%
COC(=O)c1ccc(NC(=O)CCS(=O)(=O)c2ccc(Br)cc2)cc1	inactive: -8.65%
CCC(=O)N1CCc2cc(Br)cc(S(=O)(=O)N3CCC(C(=O)Nc4ccc(OC)cc4)CC3)c21	inactive: -21.5%
COc1ccc(C(=O)NC2(C(F)(F)F)C(=O)NC(C)=C2C#N)cc1OC (configuration not stated)	inactive: -7.72%
COc1ccc(-c2cc(C(=O)O)n(Cc3ccccc3)n2)cc1	inactive: 0.355%
O=C(CSc1nc2ccccc2nc1Cc1ccccc1)NCc1ccccc1Cl	inactive: -12.6%
COc1ccc(NC(=O)CSc2nc(-c3cccs3)cc(C(F)(F)F)n2)cc1OC	inactive: -19.9%
CCCCOc1ccc(C(=O)NCCS(=O)(=O)N2CCN(c3ccc(F)cc3)CC2)cc1	inactive: -11.7%
CCc1cnc2c(c1SCC(=O)N1CCCCC1)c(=O)n(C)c(=O)n2C	inactive: -14.8%
CCOc1ccc(CNCc2c(C(=O)O)n(Cc3ccccc3F)c3cc(OC)ccc23)cc1	inactive: -16.6%
Cc1ccc(S(=O)(=O)N(CC(O)Cn2c3ccccc3c3ccccc32)c2cccc(C(N)=O)c2)cc1 (configuration not stated)	inactive: -0.253%
Cc1ccc(C)c(NC(=O)CN2C(=O)CCc3ccccc32)c1	inactive: -33.1%
CCCCN(CC)CCCNC(=O)c1sc2nc(C)cc(C)c2c1-n1cccc1	inactive: 0.756%
Cc1cccc(OC(C)C(=O)Nc2ncn[nH]2)c1 (configuration not stated)	inactive: -24.4%
CCc1ccc(NC(=O)c2ccc3c(O)c(S(=O)(=O)c4ccc(Cl)cc4)c(=O)[nH]c3c2)cc1	inactive: -16.3%

Structure (SMILES)	activation
COc1ccc(CN(C(=O)COc2ccccc2OC)C2CCS(=O)(=O)C2)cc1 (configuration not stated)	inactive: -4.36%
Cc1cccc2nc(-c3ccco3)c(Nc3ccc4c(c3)OCO4)n12	inactive: -12.7%
CCOC(=O)C1CCCN(S(=O)(=O)c2ccc(F)c(C(=O)Nc3ccc(F)c(F)c3)c2)C1 (configuration not stated)	inactive: -34.4%
CCN(CC)c1cc(C)c2cc(NC(=O)c3cccc(OC)c3)ccc2n1	inactive: -8.8%
Cc1ccc(-n2nnnc2CNC(=O)C(C)(C)C)cc1C	inactive: -16.3%
Cc1nc(SC(C)C(=O)Nc2ccccc2C)cc(-c2ccccc2)n1 (configuration not stated)	inactive: -4.77%
Cc1ccccc1CNC(=O)c1cnc2sc(N3CCOCC3)nn2c1=O	inactive: -9.65%
Cc1ccc(-c2nc3c4ccccc4n(CC(=O)N4CCN(c5ccccc5F)CC4)c(=O)n3n2)cc1	inactive: -23.4%
Cc1ccc(NC(=O)CN(C)S(=O)(=O)c2ccc3c(c2)n(C)c(=O)c(=O)n3C)cc1C	inactive: -9.64%
CCn1c2ccccc2c2nnc(SCC(=O)O)nc21	inactive: -16.6%
CCOc1ccc(CCNC(=O)Cn2nc(C)n3c(cc4occc43)c2=O)cc1OCC	inactive: -12.3%
Cc1ccccc1C(=O)c1cccn1CC(=O)NCc1ccccc1	inactive: -5.7%
CC(C)Oc1ccc(CNC(=O)c2cc3ccccn3n2)cc1	inactive: -2.06%
COc1ccc(CNC(=O)CSc2nc(-c3ccc(OC)cc3)cc(C(F)(F)F)n2)cc1	inactive: -6.47%
CCOC(=O)c1ccccc1O	inactive: -15.9%
Cc1ccc(CCNC(=O)CCCn2nc(C)c3c(C)n(-c4ccccc4)nc3c2=O)cc1	inactive: -11.1%
COc1cccc(-c2cc(C(=O)Nc3cc(Cl)ccc3O)on2)c1	inactive: -8.04%
Cc1ccc(CN2CCSc3ccc(C(=O)N4CCN(c5ccccc5)CC4)cc32)cc1	inactive: -13%
O=C(CC1N=C2c3ccccc3N=C(SCc3ccc(Cl)cc3)N2C1=O)NCc1cccs1 (configuration not stated)	inactive: -12.5%
COc1ccc(N2CCN(C(=O)C3CCN(S(=O)(=O)c4cccs4)CC3)CC2)cc1	inactive: -11.4%
